This experiment addresses T1, Strep-CDAN1 BDA1* (M824A/R825A/K826A) (human) (UniProt Q8IWY9).
T1 sequence: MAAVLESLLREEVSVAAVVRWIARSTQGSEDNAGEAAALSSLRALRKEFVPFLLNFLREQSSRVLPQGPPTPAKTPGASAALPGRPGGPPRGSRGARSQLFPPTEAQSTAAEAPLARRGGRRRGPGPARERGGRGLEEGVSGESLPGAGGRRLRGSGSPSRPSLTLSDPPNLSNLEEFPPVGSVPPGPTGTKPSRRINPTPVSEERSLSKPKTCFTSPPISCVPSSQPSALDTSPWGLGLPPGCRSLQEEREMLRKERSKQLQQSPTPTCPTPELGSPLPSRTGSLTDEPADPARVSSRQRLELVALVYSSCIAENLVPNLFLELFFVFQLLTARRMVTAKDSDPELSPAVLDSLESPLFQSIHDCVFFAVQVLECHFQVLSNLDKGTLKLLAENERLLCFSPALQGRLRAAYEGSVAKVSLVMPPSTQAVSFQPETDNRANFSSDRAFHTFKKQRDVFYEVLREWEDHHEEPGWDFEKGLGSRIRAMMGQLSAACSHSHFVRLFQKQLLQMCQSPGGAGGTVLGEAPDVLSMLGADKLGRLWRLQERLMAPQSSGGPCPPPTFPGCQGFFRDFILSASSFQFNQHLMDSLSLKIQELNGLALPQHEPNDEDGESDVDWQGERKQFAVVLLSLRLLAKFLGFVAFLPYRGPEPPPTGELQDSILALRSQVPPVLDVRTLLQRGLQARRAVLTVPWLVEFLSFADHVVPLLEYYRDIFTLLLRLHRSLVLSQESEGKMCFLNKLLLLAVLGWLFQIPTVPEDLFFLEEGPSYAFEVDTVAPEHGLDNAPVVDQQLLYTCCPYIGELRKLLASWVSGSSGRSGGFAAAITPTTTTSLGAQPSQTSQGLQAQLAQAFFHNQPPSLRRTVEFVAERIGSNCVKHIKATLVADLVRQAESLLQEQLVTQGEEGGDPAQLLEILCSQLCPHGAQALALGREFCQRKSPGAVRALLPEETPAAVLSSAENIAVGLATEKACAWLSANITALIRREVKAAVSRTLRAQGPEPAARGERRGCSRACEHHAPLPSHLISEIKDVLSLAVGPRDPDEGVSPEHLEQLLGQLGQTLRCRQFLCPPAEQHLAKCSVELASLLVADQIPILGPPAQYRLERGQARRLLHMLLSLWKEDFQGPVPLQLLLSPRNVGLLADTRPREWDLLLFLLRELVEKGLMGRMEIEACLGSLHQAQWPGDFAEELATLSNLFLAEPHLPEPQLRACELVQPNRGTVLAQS
The experiment can be described thus: pull-down; Strep-Tactin pulldown of transiently transfected ST-CDAN1 variants from Flp-In 293 T-REx lysates; endogenous ASF1A, ASF1B and CDIN1 detected by immunoblotting; IP buffer with 1% Triton X-100, 1 hr at 4 °C. (A western blot detects proteins with antibodies after separation by electrophoresis.)

Protein sequences, listed by entry. Tags and fused reporters are not part of them.
UniProt Q9NVP2: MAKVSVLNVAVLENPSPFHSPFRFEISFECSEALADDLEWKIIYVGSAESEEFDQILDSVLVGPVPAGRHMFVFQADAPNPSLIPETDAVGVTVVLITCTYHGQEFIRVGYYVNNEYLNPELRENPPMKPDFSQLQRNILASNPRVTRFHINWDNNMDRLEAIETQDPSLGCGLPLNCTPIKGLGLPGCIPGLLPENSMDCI

These are yes or no findings as the source states them, for the method shown. Binding seen in cells or lysates may run through a third protein. Some entries that bind do so weakly or less than the wild type.

With “endogenous ASF1B (from UniProt Q9NVP2 1-202)”, the binding result was “binds”.

These data come from PMC11911400, “Mechanism of ASF1 engagement by CDAN1” (Nature Communications, 2025).
